# From ChEMBL document CHEMBL1201862, “PubChem BioAssay data set” (2004)
#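 Interpolation was linear, between the two tested concentrations surrounding the appropriate level; five concentrations were tested over 48 hours in 96-well plates. GI50 is the concentration that inhibits growth by half.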 Calls of active or inactive are those of the source. Rule as the data show it: active = GI50 up to about 1.1 µM and inactive = higher.
# Tested on: NCI-H322M
# Test: DTP human tumour cell line panel, 48 h
row,Structure (SMILES),GI50
1,Cc1cnc2cc(Cl)ccc2c1SCC(=O)O,inactive: > 100 µM
2,Clc1ccc(C2=CCN3CC=C(c4ccc(Cl)cc4)C23)cc1,inactive: 16.3 µM
3,CN(C)CC(CN(C)C)c1ccccn1,inactive: > 100 µM
4,O=C1CCCc2ccc3c(c21)CC1(Cc2cc4c(cc2C1)CCCC4)C3,inactive: 33.7 µM
5,COc1cccc2c1OC(c1cccc3ccccc13)C([N+](=O)[O-])=C2 (stereo not drawn),inactive: 1.96 µM
6,O=c1[nH]cc(/N=C/c2cc(Cl)ccc2O)c(=O)[nH]1,inactive: 30.1 µM
7,CC(C)(C)OC(=O)NC1CCCC1=O (stereo not drawn),inactive: > 100 µM
8,COC(=O)c1ccccc1Nc1nc(-c2cccs2)nc2cc(OC)c(OC)cc12,inactive: 43.3 µM
9,CC1=C/C(=N\NC(N)=S)C(C(O)(C(F)(F)F)C(F)(F)F)C(C)(C)C1 (stereo not drawn),inactive: > 10 µM
10,O=S1(=O)Cc2ccc3c4c2-c2c(ccc5ccc(c-4c25)CS(=O)(=O)C3)C1,inactive: > 100 µM
11,N#CC(C#N)=C1C(=Cc2ccc(OCCCCCCCCCCSSCCCCCCCCCCOc3ccc(C=C4C(=C(C#N)C#N)c5ccccc5C4=C(C#N)C#N)cc3)cc2)C(=C(C#N)C#N)c2ccccc21,inactive: 18.3 µM
12,N#C/C(=C/NC(=S)c1ccncc1)C(N)=O,inactive: > 100 µM
13,CO[C@]12S[C@@H]3CCCC[C@@]31C(C)(C)C(=O)N2c1ccccc1,inactive: > 100 µM
14,COc1cccc(/C=C2\C(=O)N(C(=O)Cc3ccccc3)N=C2C)c1,inactive: > 100 µM
15,CCc1c(C)c(C#N)c(=S)n(C2OC(COC(C)=O)C(OC(C)=O)C(OC(C)=O)C2OC(C)=O)c1-c1ccccc1 (stereo not drawn),inactive: > 10 µM
16,CCN(CC)c1ccc2c(c1)Oc1ccc(N(C(C)=O)c3ccccc3)cc1C21OC(=O)c2ccccc21 (stereo not drawn),inactive: > 100 µM
17,CCS/C(=N\c1ccccc1)SC,inactive: > 100 µM
18,O=c1c(Cc2ccccc2)c(O)cc2n1CCC2,inactive: > 100 µM
19,CC1=CC(C2/C(=N/O)C=C(C)CC2(C)C)C(O)C(C)(C)C1 (stereo not drawn),inactive: 18 µM
20,CC(=O)OC12OC(C)(C3C(=O)N(c4ccccc4)C(=O)C31)N(c1ccccc1)C2=O (stereo not drawn),inactive: > 100 µM
21,Clc1ccc(-c2nc3cc(C45CC6CC(CC(C6)C4)C5)ccc3[nH]2)cc1,inactive: 77.3 µM
22,C=CC(C)(C)C(=C)C(=O)Nc1ccccc1I,inactive: > 100 µM
23,N#CC1(C#N)C2C=CC(C3CCC=C32)C1(C#N)C#N (stereo not drawn),inactive: > 10 µM

row,Structure (SMILES),GI50
1,O=C(c1ccc(Cl)cc1)N1CCN=C1c1cc2ccccc2c2ccccc12,inactive: 12.6 µM
2,Cc1cc(NCCCCCCCNc2cc(C)nc3cc([N+](=O)[O-])ccc23)c2ccc([N+](=O)[O-])cc2n1,inactive: 10.1 µM
3,CC(C)C(=O)CC(c1ccc(Br)cc1)N1N=C(C(C)C)CC1c1ccc(Br)cc1 (stereo not drawn),inactive: > 100 µM
4,N=c1c2ccccc2nc2oc3ccc(Cl)cc3n12,inactive: 43.5 µM
5,CCOC(=O)C(=O)N1C(C)=C(C(=O)OCC)CC(C(=O)OCC)=C1C,inactive: > 100 µM
6,O=C(N/N=C1\C(=O)Nc2ccc(Br)cc21)/C(O)=C/C(=O)c1ccc(Cl)cc1,inactive: > 100 µM
7,N#Cc1c(N2CCOCC2)ncn(-c2ccccc2)c1=O,inactive: > 100 µM
8,CC12CCC(=O)N1c1cccnc1N2 (stereo not drawn),inactive: > 100 µM
9,CC(/C=C/NNC1=NN=C(c2ccccc2)C(c2ccccc2)N1)Sc1ccccc1N (stereo not drawn),inactive: 11.1 µM
10,Cc1cccc2c1NC(c1c(C)[nH]c3ccccc13)C2 (stereo not drawn),inactive: 75.9 µM
11,CCCCCCCCCCCCOC1C(COCCN2CCCC2)OC2OC(C)(C)OC21 (stereo not drawn),inactive: 10 µM
12,NCc1ccc(O)c(O)c1O,inactive: 25 µM
13,CN(C)/C=N\c1nncc2[nH]cnc12,inactive: > 100 µM
14,COc1ccc(C[C@H]2COC(=O)[C@@H]2Cc2cc(OC)c(OC)c(OC)c2)cc1OC,inactive: > 100 µM
15,CC1=NC(=N)N=C(C)C1/N=N/c1ccc2[nH]c(C)nc2c1 (stereo not drawn),inactive: > 100 µM
16,COC(=O)NN1C(C)=C(C(=O)OC)C2(C#N)C(C(=O)OC)=C(C)N(NC(=O)OC)C12N (stereo not drawn),inactive: > 100 µM
17,C/C(=N/N)c1sc(-c2nc(C)c(/C(C)=N\N)s2)nc1C,inactive: > 100 µM
18,O=C(O)C1(C(O)c2ccccc2)SCCCS1 (stereo not drawn),inactive: 9.23 µM
19,Cc1cc(O)nc(NN2C(Cl)C(=O)C2c2cccc(Cl)c2)n1 (stereo not drawn),inactive: 29.3 µM
20,CC(C)CCNC(=O)c1ccc(CNC(=O)/C=C/c2ccc(OCc3ccccc3)cc2)cc1,inactive: > 100 µM
21,COC(=O)N/N=C/c1oc(-c2ccccc2)c(-c2ccccc2)c1[N+](=O)[O-],inactive: > 100 µM
22,COC(=O)c1ccc(NC(=O)c2cc(OC)c(OC)c(OC)c2)cc1,inactive: 1.92 µM
23,COc1cc2c(cc1O)NC(=O)[C@@H]1C[C@@H](O)CN1C2=O,inactive: > 100 µM

row,Structure (SMILES),GI50
1,CC(=O)O[C@H]1C[C@]2(C)C(CCC3O[C@@]32C)[C@@]2(CC(c3ccoc3)OC2O)[C@@H]1C (stereo partly drawn),inactive: > 100 µM
2,CCN(CC)CC(C)C(=O)/C=C/c1ccc(C)cc1 (stereo not drawn),inactive: 13.1 µM
3,CNc1cc(N)ccc1C(=O)N1CCC[C@H]1CO,inactive: > 100 µM
4,CCC12CCCN(Cc3ccccc3)C1c1c(n(C)c3ccccc13)C(CO)C2 (stereo not drawn),inactive: 49.3 µM
5,Cc1c(/C=N\NC(=S)NCCNC(=S)N/N=C\c2c(C)n(C)n(-c3ccccc3)c2=O)c(=O)n(-c2ccccc2)n1C,inactive: > 100 µM
6,COC(=O)/C=C1\CCC(C)(C(=O)NS(=O)(=O)c2ccc(C)cc2)C1(C)C (stereo not drawn),inactive: > 100 µM
7,NC(=S)N/N=C1\C(=O)Nc2c(Cl)cc(Cl)cc21,inactive: 32 µM
8,COc1cc2cc(C(=O)N3CC(CCl)c4c3cc([N+](C)(C)Cc3ccc([N+](=O)[O-])n3C)c3ccccc43)[nH]c2c(OC)c1OC (stereo not drawn),inactive: 2.14 µM
9,C(CCCCc1nnc(N2CCOCC2)o1)CCCc1nnc(N2CCOCC2)o1,inactive: > 100 µM
10,CCCN(CCC)C(=O)c1c([N+](=O)[O-])cc(C(F)(F)F)cc1[N+](=O)[O-],inactive: 61.5 µM
11,N=C1OC(c2c[nH]c3ccc(OCc4ccccc4)cc23)C(O)=C1O (stereo not drawn),inactive: > 100 µM
12,O=C1/C(=C\c2ccc(O)cc2)CCC/C1=C/c1ccc(Cl)c(Cl)c1,inactive: 4.95 µM
13,CC(=O)OCC1OC(N2C(=O)/C(=N\NC(N)=S)c3ccc([N+](=O)[O-])cc32)C(OC(C)=O)C1OC(C)=O (stereo not drawn),inactive: 24.4 µM
14,CN(C)C(=O)C1CCN(Cc2c[nH]c3ccccc23)CC1,inactive: > 100 µM
15,COc1c(Br)cc(CC(N)=O)c(O)c1Br,inactive: > 100 µM
16,CC#CS(=O)(=O)c1ccccc1,inactive: 19.9 µM
17,O=C(O)C1c2ccccc2C(C(=O)O)c2ccccc21 (stereo not drawn),inactive: > 100 µM
18,CCCOC1OC(CS(=O)(=O)O)C(OC(C)=O)C(OC(C)=O)C1OC(C)=O (stereo not drawn),inactive: > 100 µM
19,N=C(N)NCCCC(=O)O,inactive: > 100 µM
20,CCCCC#C[I+]c1ccccc1,inactive: 16.3 µM
21,CN(C)c1ccc(/C=c2/c3ccccc3n3c2cc(NC(=O)NCCC[N+](C)(C)C)[n+]3C)cc1,inactive: > 100 µM
22,COc1cc(C(C)c2cc3c(cc2OCCO)OCO3)cc(OC)c1OC (stereo not drawn),inactive: 4.33 µM
